# Test results: the supplement of paper PMC11417369
# The list shows a part of the results.
# Tested on: PfAP2-HC AP2 domain (GST-tagged)
# Assay: gcPBM binding intensity (ln(normalized median fluorescence intensity)); higher = stronger DNA binding
# How it was run: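 Each value is the highest Masliner-normalised natural-log median intensity across replicate spots of either orientation of a probe. The probes were primer-extended double-stranded 36-bp intergenic genomic sequences on an Agilent 4 × 180k array, alongside negative controls, exposed for 1 h to GST-tagged P. falciparum DNA-binding domains expressed in E. coli. Bound protein was picked up with Alexa488 anti-GST antibody and scanned at 488 nm.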
row,Sequence,gcPBM binding intensity (ln)
1,AAAGCTTACATATACACACATACATAAATTCATAAA [CACACA_site2469],9.86
2,AAAAAAAAAAAAGGAACACACAAGTAACAATAAATT [CACACA_site2481],10.2
3,TTTTTTTATTATACTAGTACATATATATACAGCACA [XGTACX_site3464],9.6
4,ATACTAAAGAAACACACACACATATATATATAGAAT [CACACA_site100],10.9
5,TTTACACCCTAAAAATGTACAAGAAAGATTATATTA [XGTACX_site1102],9.47
6,GAGAAATGGGGACACACACACATATTATAGATATAT [CACACA_site6829],10.4
7,TTGTTTGATATCTTTGTCACGAAAAAAATATATATA [GTGCAC_negctrl_site54],9.34
8,TAAGGATAAAATAAATGTACATATGTAAAATTATTA [XGTACX_site4170],9.84
9,TAATCTCATAAAACCGCACACACATAAAATTTGCAT [CACACA_site3890],10.4
10,TTTTTAATAATCTCTCAAAATGTTCTTATATTTTAC [CACACA_negctrl_site1691],9.58
11,ATATATTTCCTGAGGAGTACTATGAAAGACAAAAAA [XGTACX_site5628],9.54
12,ATAATTTTGATTATCACACATATATATATATATATG [CACACA_site5882],9.67
13,TAAGAAAAAAGTAAATGTACAGAGAAAATTATCTAT [XGTACX_site7374],9.74
14,ATTTATTACAAATGAATGCACTATATCTTAATTTTG,9.58
15,ACATATATATAAAGGTGTACACATATATATATATAT [XGTACX_site4779],9.78
16,TTTGTCATTTTATTATGTACTCAGCATATAGGGGGG [XGTACX_site505],10.6
17,AAAAAAATTCTGACTTGTACATATAAAATTTACAAA [XGTACX_site4408],9.33
18,GATTTTTAAAATATCACACATAAAAAAAAAAAAAAA [CACACA_site5516],9.19
19,TAATTTAATAATTAGACACACATGTGGAAAATAAAA [CACACA_site5401],10.2

row,Sequence,gcPBM binding intensity (ln)
1,GTCAAATTTTTGTGCACACATATATAGTTATTATTA [CACACA_site2241],10.3
2,TTTATATGTATTAAGTGTACACATATAATCTATCTT [XGTACX_site4922],9.78
3,TAATAATATATATGAAGTACAATAACTTTTTGTTTT [XGTACX_site292],9.57
4,TTTCTTTTCTCAGAAATTATTCAAATGAAAAAAAAT [TGCATGCA_negctrl_site44],9.22
5,AAAATACACGCATACACACACACACCCACCCATATA [CACACA_site639],11.5
6,AAAAAAAAAAAAAAAACACACACATACACCCAAAAA [CACACA_site7910],10.5
7,TTACATATGGTTAGTAGTACATATATAAATGTAAAT [XGTACX_site7206],9.78
8,TTTATAAAAATATACACACATACAAATATGCATATA [CACACA_site712],9.73
9,GAAAAAAGGAAATAAAGAAAAAAAAAAATGAAATAT [XGTACX_negctrl_site318],9.49
10,AAACATGATTATTATAGTACAATTATAATTATTATA [XGTACX_site2590],9.53
11,GTCATAAAAACATATACACACTTGAAATATAAAAAT [CACACA_site5315],9.88
12,GTATACACATATATATGTACTTAATTATTTTATGTC [XGTACX_site6707],9.76
13,CAAAGGGAAATTAACACACACATATATATATATATA [CACACA_site2453],10.3
14,CTGTTTAAAATATAAACACACATTGTTTGCTTTAGA [CACACA_site1301],9.66
15,ATTTTTTTACTGCAACCATATTTTTCCCTTTTATTC [CACACA_negctrl_site1282],9.65
16,TGTATATATATATAAAGTACATATAATATATATTTG [XGTACX_site5411],9.59
17,AAATAAAATTATAACTGTACGTTGTATGAAATAATG [XGTACX_site5462],9.74
18,GTGTACATAGGTATAGCACACACAAATGTAGGTATT [CACACA_site9339],10
19,TCTATAAAGTTCCATACATGCGCCATCATTTATATT [TGCATGCA_site195],10.3

row,Sequence,gcPBM binding intensity (ln)
1,GAATACACCACGCACACACACTTGAGAAAAAATAAA [CACACA_site7747],10.3
2,ATTATAATTATTTTGTTGCACTATTTTTGTAGGCCA [GTGCAC_site9734],9.5
3,TAGTTATTTATATACACACACATACAGACAAATAAA [CACACA_site7577],10.8
4,TCTTAGATTATTTATTGTACTTATGCTTAAAAAATT [XGTACX_site3639],9.56
5,GTCCAATAAGGAAGAGTGCAAAAATTAAATAATATA [GTGCAC_site9751],9.61
6,AAAGAAAAAAAAAACACACACACACGCATTCAATAT [CACACA_site6169],10.7
7,ATATATATTTATATATATATATATATATATATGTAT [GTGCAC_negctrl_site220],9.49
8,GAAAAAAAAGAAAAAACACACATATGATATATTTAT [CACACA_site1524],9.64
9,ATATTTTCTTTTTAAAGTACATATTTGATTACAATA [XGTACX_site8414],9.22
10,ATATATATATATATATGTACATATTTTTAATTATAA [XGTACX_site7444],9.73
11,ATAGAATAATATTGTAGTACTAAAAATATTCATTTT [XGTACX_site6447],9.59
12,TCTATATATAAATATAAATATATATATATAATGTTA [TGCATGCA_negctrl_site92],9.36
13,TAAAAAACAAAACAGGTGCTATATAATTTTCATTTT,9.68
14,ATTATAAATTAAAATACACACATATATACATAATAT [CACACA_site7337],9.91
15,TCTTTTTGTTCGTGTACACACATGAAATTTATAAAA [CACACA_site1619],9.78
16,AAGTATATACATATATGTACACATTGTCAGATAGAA [XGTACX_site1236],9.79
17,TTGTTTCTTAAATTATTTATTTTATATTAAAAAAAA [XGTACX_negctrl_site224],9.27
18,AAGAAAATGAAAAAGTAAAAACATATATTAAATATA [TGCATGCA_negctrl_site123],9.54
